# Laboratory results taken from the supplement of paper PMC8728848.
# This is one part of the list.
# B1: MAA (Maackia amurensis), P0DKL3 (protein)
# chain: MATSNSKPTQVLLATFLTFFFLLLNNVNSSDELSFTINNFVPNEADLLFQGEASVSSTGVLQLTRVENGQPQKYSVGRALYAAPVRIWDNTTGSVASFSTSFTFVVKAPNPDITSDGLAFYLAPPDSQIPSGSVSKYLGLFNNSNSDSSNQIVAVELDTYFAHSYDPWDPNYRHIGIDVNGIESIKTVQWDWINGGVAFATITYLAPNKTLIASLVYPSNQTTFSVAASVDLKEILPEWVRVGFSAATGYPTEVETHDVLSWSFTSTLEANCDAATENNVHIARYTA
# How the values were obtained:
# Experiment in all cases: glycan array binding signal (z-score within array); higher = stronger binding
# Details in all cases: glycan notation: IUPAC condensed, linker removed
# [1] = molecular target: GlcNAc(b1-3)Gal(b1-4)GlcNAc(b1-6)[GlcNAc(b1-3)]Gal(b1-4)GlcNAc
# Method in brief: (§1)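 Negative Z-scores can be read as non-binding. The Z-score is calculated within each array and then averaged across arrays of one protein sequence at different concentrations or buffers and across linkers. Arrays, 3228 in all, were curated from the Consortium for Functional Glycomics database and kept only where the protein sequence was available.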
# [2] = molecular target: GlcNAc(b1-3)GalNAc
# Method in brief: as §1
# [3] = molecular target: GlcNAc(b1-3)Man
# Method in brief: as §1
# [4] = molecular target: GlcNAc(b1-3)[GlcNAc(b1-4)][GlcNAc(b1-6)]GlcNAc
# Method in brief: as §1
# [5] = molecular target: GlcNAc(b1-3)[GlcNAc(b1-6)]Gal(b1-4)GlcNAc
# Method in brief: as §1
# [6] = molecular target: GlcNAc(b1-3)[GlcNAc(b1-6)]GalNAc
# Method in brief: as §1
# [7] = molecular target: GlcNAc(b1-3)[GlcNAc(b1-6)]GlcNAc(b1-4)GlcNAc
# Method in brief: as §1
# [8] = molecular target: GlcNAc(b1-4)Gal(b1-4)GlcNAc
# Method in brief: as §1
# [9] = molecular target: GlcNAc(b1-4)GlcNAc
# Method in brief: as §1
# [10] = molecular target: GlcNAc(b1-4)GlcNAc(b1-4)GlcNAc
# Method in brief: as §1
# [11] = molecular target: GlcNAc(b1-4)GlcNAc(b1-4)GlcNAc(b1-4)GlcNAc(b1-4)GlcNAc
# Method in brief: as §1
# [12] = molecular target: GlcNAc(b1-4)GlcNAc(b1-4)GlcNAc(b1-4)GlcNAc(b1-4)GlcNAc(b1-4)GlcNAc
# Method in brief: as §1
# [13] = molecular target: GlcNAc(b1-4)[GlcNAc(b1-6)]GalNAc
# Method in brief: as §1
# [14] = molecular target: GlcNAc(b1-6)Gal(b1-4)GlcNAc
# Method in brief: as §1
# [15] = molecular target: GlcNAc(b1-6)GalNAc
# Method in brief: as §1
# [16] = molecular target: GlcNAc6S(b1-3)Gal(b1-4)GlcNAc
# Method in brief: as §1
# [17] = molecular target: Kdn(a2-3)Gal(b1-3)GalNAc
# Method in brief: as §1
# [18] = molecular target: Kdn(a2-3)Gal(b1-3)GlcNAc
# Method in brief: as §1
# [19] = molecular target: Kdn(a2-3)Gal(b1-4)Glc
# Method in brief: as §1
# [20] = molecular target: Kdn(a2-3)Gal(b1-4)GlcNAc
# Method in brief: as §1
# [21] = molecular target: Kdn(a2-3)Gal(b1-4)[Fuc(a1-3)]GlcNAc
# Method in brief: as §1
# [22] = molecular target: Kdn(a2-6)Gal(b1-4)GlcNAc
# Method in brief: as §1
# [23] = molecular target: Man(a1-2)Man(a1-2)Man(a1-3)Man
# Method in brief: as §1
# [24] = molecular target: Man(a1-2)Man(a1-2)Man(a1-6)[Man(a1-3)]Man
# Method in brief: as §1
# [25] = molecular target: Man(a1-2)Man(a1-3)Man
# Method in brief: as §1
# [26] = molecular target: Man(a1-2)Man(a1-3)[Man(a1-2)Man(a1-6)]Man
# Method in brief: as §1
# [27] = molecular target: Man(a1-2)Man(a1-3)[Man(a1-2)Man(a1-6)]Man(a1-6)[Man(a1-2)Man(a1-2)Man(a1-3)]Man
# Method in brief: as §1
# [28] = molecular target: Man(a1-2)Man(a1-3)[Man(a1-2)Man(a1-6)]Man(a1-6)[Man(a1-2)Man(a1-2)Man(a1-3)]Man(b1-4)GlcNAc(b1-4)GlcNAc
# Method in brief: as §1
# [29] = molecular target: Man(a1-2)Man(a1-3)[Man(a1-6)]Man(a1-6)[Man(a1-2)Man(a1-3)]Man(b1-4)GlcNAc(b1-4)GlcNAc
# Method in brief: as §1
# [30] = molecular target: Man(a1-2)Man(a1-6)[Man(a1-3)]Man(a1-6)[Man(a1-2)Man(a1-2)Man(a1-3)]Man
# Method in brief: as §1
# [31] = molecular target: Man(a1-2)Man(a1-6)[Man(a1-3)]Man(a1-6)[Man(a1-2)Man(a1-2)Man(a1-3)]Man(b1-4)GlcNAc(b1-4)GlcNAc
# Method in brief: as §1
# [32] = molecular target: Man(a1-3)[Man(a1-6)]Man
# Method in brief: as §1
# [33] = molecular target: Man(a1-3)[Man(a1-6)]Man(a1-6)[Man(a1-2)Man(a1-3)]Man(b1-4)GlcNAc(b1-4)GlcNAc
# Method in brief: as §1
# [34] = molecular target: Man(a1-3)[Man(a1-6)]Man(a1-6)[Man(a1-3)]Man
# Method in brief: as §1
# [35] = molecular target: Man(a1-3)[Man(a1-6)]Man(a1-6)[Man(a1-3)]Man(b1-4)GlcNAc(b1-4)GlcNAc
# Method in brief: as §1
# [36] = molecular target: Man(a1-3)[Man(a1-6)]Man(b1-4)GlcNAc(b1-4)GlcNAc
# Method in brief: as §1
# [37] = molecular target: Man(a1-3)[Man(a1-6)]Man(b1-4)GlcNAc(b1-4)[Fuc(a1-6)]GlcNAc
# Method in brief: as §1
# [38] = molecular target: Man(a1-6)Man
# Method in brief: as §1
# [39] = molecular target: Man(b1-4)GlcNAc
# Method in brief: as §1
# [40] = molecular target: MurNAc(b1-4)GlcNAc
# Method in brief: as §1
# [41] = molecular target: Neu5Ac(a2-3)Gal
# Method in brief: as §1
# [42] = molecular target: Neu5Ac(a2-3)Gal(b1-3)GalNAc
# Method in brief: as §1
# [43] = molecular target: Neu5Ac(a2-3)Gal(b1-3)GalNAc(b1-3)Gal(a1-4)Gal(b1-4)Glc
# Method in brief: as §1
# [44] = molecular target: Neu5Ac(a2-3)Gal(b1-3)GalNAc(b1-3)Gal(b1-4)GlcNAc
# Method in brief: as §1
# [45] = molecular target: Neu5Ac(a2-3)Gal(b1-3)GalNAc(b1-4)[Neu5Ac(a2-3)]Gal(b1-4)Glc
# Method in brief: as §1
binder,measurement,setting,value
B1,glycan array binding signal (z-score),[1],0.208
same,glycan array binding signal (z-score),[2],-0.204
same,glycan array binding signal (z-score),[3],-0.183
same,glycan array binding signal (z-score),[4],-0.19
same,glycan array binding signal (z-score),[5],-0.138
same,glycan array binding signal (z-score),[6],-0.19
same,glycan array binding signal (z-score),[7],-0.222
same,glycan array binding signal (z-score),[8],-0.331
same,glycan array binding signal (z-score),[9],-0.125
same,glycan array binding signal (z-score),[10],0.17
same,glycan array binding signal (z-score),[11],0.497
same,glycan array binding signal (z-score),[12],0.556
same,glycan array binding signal (z-score),[13],-0.231
same,glycan array binding signal (z-score),[14],-0.232
same,glycan array binding signal (z-score),[15],-0.223
same,glycan array binding signal (z-score),[16],-0.188
same,glycan array binding signal (z-score),[17],-0.116
same,glycan array binding signal (z-score),[18],-0.221
same,glycan array binding signal (z-score),[19],-0.117
same,glycan array binding signal (z-score),[20],0.436
same,glycan array binding signal (z-score),[21],-0.082
same,glycan array binding signal (z-score),[22],-0.144
same,glycan array binding signal (z-score),[23],-0.188
same,glycan array binding signal (z-score),[24],-0.236
same,glycan array binding signal (z-score),[25],-0.178
same,glycan array binding signal (z-score),[26],-0.14
same,glycan array binding signal (z-score),[27],-0.18
same,glycan array binding signal (z-score),[28],-0.107
same,glycan array binding signal (z-score),[29],-0.2
same,glycan array binding signal (z-score),[30],-0.191
same,glycan array binding signal (z-score),[31],-0.26
same,glycan array binding signal (z-score),[32],-0.223
same,glycan array binding signal (z-score),[33],0.015
same,glycan array binding signal (z-score),[34],-0.174
same,glycan array binding signal (z-score),[35],-0.208
same,glycan array binding signal (z-score),[36],-0.056
same,glycan array binding signal (z-score),[37],-0.266
same,glycan array binding signal (z-score),[38],-0.166
same,glycan array binding signal (z-score),[39],-0.263
same,glycan array binding signal (z-score),[40],-0.139
same,glycan array binding signal (z-score),[41],-0.23
same,glycan array binding signal (z-score),[42],-0.27
same,glycan array binding signal (z-score),[43],-0.217
same,glycan array binding signal (z-score),[44],-0.244
same,glycan array binding signal (z-score),[45],-0.258
